The campaign covered roughly 52,000 compounds. About 1,700 (3.3%) were called active. No stated cut-off is given here; in the data, active means survival mostly below about 52% (no sharp cut-off); inactive means mostly above about 56%. The list shows a part of the results.

The subject of this test is Wild type. Description: growth inhibition of S. aureus wild type versus tarO mutant, primary screen, teichoic acid synthesis inhibitors, RN4220, OD600 (AID 463173). The following applies: S. aureus RN4220 wild type/DeltatarO growth, OD600, 18 h, active compounds read low, screened at 18.75 µg/mL (by protocol).
On to `CCc1ccc(CN(C(=O)c2cc(=O)c3ccc(C)cc3o2)C2CCS(=O)(=O)C2)cc1` (configuration not stated), for which the survival was inactive: 107%.

Turning to `COc1cccc(CNC(=O)CCCn2nc(C)c3c(C)n(-c4ccc(C)cc4)nc3c2=O)c1OC`, the survival was inactive: 78%.

Regarding `CCN(CC)CCNC(=O)c1ccc(-n2c(-c3ccccc3)cc3c2CCCC3)cc1`, the survival was active: 2%.

Regarding `CN(C)S(=O)(=O)c1ccc2c(c1)C(CC(=O)O)OC2=O` (configuration not stated), the survival is inactive: 103%.

As for `O=C(O)c1cccc(N=NN2CCOCC2)c1`, the survival is inactive: 110%.

Turning to `CC(C)Cn1c(=O)c2sccc2n2c(CCCC(=O)NC3CCCCC3)nnc12`, the survival is inactive: 100%.

For `CCCCc1ccc(NC(=O)C2(C)Cc3ccccc3C(=O)O2)cc1` (configuration not stated), the survival was inactive: 83%.

Take `CCc1ccc(C2CC(=O)Oc3c2c(=O)n(C)c2ccccc32)cc1` (configuration not stated): the survival was inactive: 64%.

As for `Cc1cccc(-c2nc(C(N)=O)c3c(n2)n(-c2ccc4c(c2)OCO4)c(=O)n3C)c1`, the survival is inactive: 68%.

`COc1ccc(N(C)C(=O)c2cc(S(=O)(=O)N3CCc4ccccc43)cn2C)c(OC)c1`: the survival was inactive: 99%.

Consider `Cc1ccc(C2C(C#N)=C(N)OC3=C2C(=O)CC(C)(C)C3)s1` (configuration not stated), for which the survival is inactive: 107%.

In the case of `Cc1ccc(CN(Cc2ccco2)c2cnc(S(C)(=O)=O)nc2C(=O)Nc2ccccc2Br)o1`, the survival was inactive: 94%.

On to `Cc1cc(C)cc(NC(=O)Cn2cc(C(=O)c3ccccc3)c(=O)c3ccc(C)nc32)c1`, for which the survival was inactive: 71%.

In the case of `Cn1c(=O)c2nc(SCC(=O)Nc3ccc(Cl)c(Cl)c3)n(C)c2n(C)c1=O`, the survival is inactive: 76%.

With `COC(=O)CN1C(=O)C(O)(CC(=O)c2ccc(F)cc2)c2ccccc21` (configuration not stated), the survival is inactive: 76%.

On to `CCOC(=O)CSc1nc2ccc(NC(=O)COc3ccccc3C)cc2s1`, for which the survival was inactive: 105%.

As for `Cc1ccc(-n2c3nc(=O)[nH]c(=O)c-3cc3c(C)nn(-c4ccccc4)c32)c(C)c1`, the survival was inactive: 91%.

In the case of `Cc1ccc(Cl)cc1NC(=O)CCS(=O)(=O)c1ccc2c(c1)n(C)c(=O)c(=O)n2C`, the survival is inactive: 87%.

Consider `Cc1nn(CC(=O)N2CCCCC2)c(=O)c2cc3occc3n12`, for which the survival was inactive: 115%.

Turning to `O=C(Nc1ccc(Cl)cc1)c1cc2c(-c3ccccc3)nn(-c3ccccc3)c2s1`, the survival is inactive: 66%.

On to `O=C1CSC2(CCCCC2)N1c1ccc(Cl)cc1`, for which the survival was inactive: 102%.

As for `CC(C)Cn1cc(NC(=O)NCc2ccccc2Cl)c2ccccc2c1=O`, the survival was inactive: 80%.

As for `CC(NC(=O)C1CCN(S(=O)(=O)c2ccc3nc4c(c(C(=O)O)c3c2)CCCC4)CC1)c1ccccc1` (configuration not stated), the survival was inactive: 114%.

On to `COc1cccc(NC(=O)c2ccc3nc(Cc4ccccc4)oc3c2)c1`, for which the survival is inactive: 53%.

Take `COc1ccc(-c2cc(C(=O)Nc3sc4c(c3C#N)CCCC4)no2)cc1OC`: the survival is inactive: 80%.

As to `Cc1ccc(NC(=O)CCS(=O)(=O)c2cc(Br)cc3c2N(C(=O)C2CC2)CC3)cc1`, the survival was inactive: 85%.

Consider `O=C(CSc1oc(-c2ccccc2)nc1S(=O)(=O)c1ccccc1)c1ccccc1`, for which the survival is inactive: 139%.

For `CC1CCCCN1C(=O)CSc1nc2ccccc2c(=O)[nH]1` (configuration not stated), the survival was inactive: 102%.

As for `CCc1ccc(-n2c(SCc3cccc(F)c3)nc3[nH]ncc3c2=O)cc1`, the survival was inactive: 89%.

Consider `O=c1oc2ccccc2cc1-c1cn2cc(Cc3ccccc3F)sc2n1`, for which the survival is inactive: 78%.

For `Cc1ccc(Cn2c(SCc3ccc(C(=O)NC4CCCC4)cc3)nc3ccncc32)cc1`, the survival was inactive: 90%.

As to `CCn1c(=O)cc(OCC(=O)Nc2ccc(C)c(F)c2)c2ccccc21`, the survival was inactive: 76%.

With `Cc1ccc2nc(NCCc3ccccc3)c3nncn3c2c1`, the survival was inactive: 82%.

For the compound `Cc1nn(-c2ccccc2)c(OC(=O)C(C)(C)C)c1Sc1ccccc1`, the survival is inactive: 51%.

For `COCCn1c(=N)c(C(=O)NCc2ccco2)cc2c(=O)n3cc(C)ccc3nc21`, the survival is inactive: 71%.

As for `Cc1ccc(-n2c(-c3ccco3)nc3c(cnn3-c3ccccc3C)c2=O)cc1`, the survival was inactive: 121%.

As to `Cc1cccc(-n2c(=O)c3c(c4cc(C)ccc4n3C)n(CC(=O)Nc3ccc(C)cc3C)c2=O)c1`, the survival was inactive: 97%.

Consider `Nc1cc(N)nc(SCc2ccccc2C(F)(F)F)n1`, for which the survival is inactive: 115%.

`Cc1ccc(C(=O)Nc2ccc3oc(-c4ccncc4)nc3c2)c(Cl)c1`: the survival was inactive: 84%.

On to `Cc1nnc(NC(=O)C(=O)c2cc(C)n(-c3ccc(C)c(C)c3)c2C)s1`, for which the survival is inactive: 104%.

Consider `CCCC(=O)c1ccc(OC(=O)c2c(-c3ccccc3Cl)noc2C)cc1`, for which the survival was inactive: 124%.

For `COc1ccc(-c2ccc(CCC(=O)O)n2CC(=O)Nc2cccc(C(F)(F)F)c2)cc1`, the survival is inactive: 85%.

For `COc1ccc(-c2cn3c(n2)sc2cc(C(=O)Nc4cc(OC)cc(OC)c4)ccc23)cc1`, the survival is inactive: 98%.

With `CCc1ccc(-n2c(=O)c3cccnc3n2CC(=O)Nc2ccccc2C(F)(F)F)cc1`, the survival was inactive: 68%.

On to `N#Cc1c(NC(=O)CS(=O)(=O)c2ccc(Cl)cc2)sc2c1CCCCC2`, for which the survival is inactive: 72%.

For the compound `Cc1ccc2nsnc2c1S(=O)(=O)N1CCCC1`, the survival was inactive: 128%.

With `CCOC(=O)c1c(NC(C)=O)c2c3c(sc2n1Cc1nc(-c2cccc(C)c2)oc1C)CCCC3`, the survival was inactive: 89%.

In the case of `CCOc1ccccc1NC(=O)NC1CC2CCCC(C1)N2Cc1nnnn1CCc1ccccc1` (configuration not stated), the survival is inactive: 91%.

Turning to `COc1ccc(N2CCN(C(=O)c3ccc4c(Cl)c5c(nc4c3)CCCC5)CC2)cc1`, the survival was inactive: 127%.

As to `COc1ccccc1C(=O)NC1=NC(c2ccc(Br)cc2)CC(=O)N1` (configuration not stated), the survival is inactive: 50%.

Turning to `COc1ccccc1-c1nc(CNC(=O)Nc2ccccc2)c(C)o1`, the survival was inactive: 68%.

`CCOc1ccc(-c2cc(C(=O)NCCc3ccc(Cl)cc3)c3ccccc3n2)cc1`: the survival is inactive: 88%.

For the compound `COc1cc(-c2cc(OC)c3c(C)oc(C)c3c(=O)c2)ccc1OC(=O)c1ccccc1F`, the survival is inactive: 77%.

As to `O=[N+]([O-])c1cc(-c2nc(-c3ccccc3)no2)ccc1NC1CCCC1`, the survival was inactive: 107%.

For `COc1ccc(CN2C(=O)N(c3ccc(C)cc3)C(=O)C2CC(=O)Nc2ccccc2)cc1OC` (configuration not stated), the survival is inactive: 87%.

Turning to `CCCc1cc(C(=O)Nc2c(C)nn(Cc3ccc(Cl)c(Cl)c3)c2C)no1`, the survival was inactive: 62%.

With `CS(=O)(=O)Nc1ccc(-c2nc3ccccc3s2)cc1`, the survival is inactive: 66%.

As for `O=C(CSc1ncc2c(n1)-c1cc(Cl)ccc1N(Cc1ccccc1)S2(=O)=O)NCCc1ccccc1`, the survival was inactive: 113%.

In the case of `CCOC(=O)COc1cc(C)c(Cl)cc1C(=O)c1ccn2nc(-c3ccc(OC)cc3)cc2n1`, the survival is inactive: 72%.

`COc1ccc(NC(=O)c2cccn2-c2nnc(N3CCCCC3)s2)c(OC)c1`: the survival is inactive: 73%.

`CC(NS(=O)(=O)c1ccc(Br)cc1)C(=O)NCc1ccco1` (configuration not stated): the survival was inactive: 113%.

Turning to `CCc1nn(CC(=O)NCCc2ccc(OC)c(OC)c2)c(=O)c2cc3occc3n12`, the survival is inactive: 147%.

In the case of `O=c1[nH]nc(SC(F)(F)C(F)(F)C(F)(F)F)c(=O)[nH]1`, the survival is inactive: 68%.

On to `Cc1ccccc1N1C(S)=C(C#N)C(=O)NC1c1ccco1` (configuration not stated), for which the survival was inactive: 113%.

Regarding `COc1ccccc1NC(=O)c1ccc(-c2nc(COc3ccc(C)cc3)c(C)o2)cc1`, the survival was inactive: 84%.

For the compound `Cc1ccc(NC(=O)Nc2c(C)n(C)n(-c3ccccc3)c2=O)c(Cl)c1`, the survival is inactive: 76%.

As for `CCOc1ccc(NC(=O)C2=C(C)C(=O)OC23CCC(C)CC3)cc1` (configuration not stated), the survival is inactive: 71%.

Turning to `CCOC(=O)c1ccc(NC(=O)CSc2nc(-c3ccc(F)cc3)cc(C(F)(F)F)c2C#N)cc1`, the survival is inactive: 90%.

Take `COc1ccc(C2CC(=O)c3cc(-c4nc(-c5ccc(C)cc5)cs4)c(=O)[nH]c3C2)cc1` (configuration not stated): the survival is inactive: 82%.

`CC(C)c1ccc(NC(=O)Cc2ccc(NC(=O)N3CCCCc4ccccc43)cc2)cc1`: the survival was inactive: 110%.

Take `CCC1CN(C(=O)NCc2ccc(F)cc2)c2cc(Cl)ccc2O1` (configuration not stated): the survival is inactive: 72%.

As to `CCOc1ccc2[nH]c(=O)c(CN(CC3COCCO3)C(=O)C3CC3)cc2c1` (configuration not stated), the survival was inactive: 101%.

Turning to `CCOc1cccc(CNC(=O)c2ccc(N3CCCC3)c(NC(=O)Nc3ccccc3CC)c2)c1`, the survival was inactive: 78%.

As to `CCOC(=O)c1c(C)[nH]c(C)c1S(=O)(=O)N(C)CC(=O)NCc1ccc(C)cc1`, the survival was inactive: 67%.

For the compound `COc1ccc(NC(=O)C2CCCN(S(=O)(=O)c3c(C)[nH]c(=O)[nH]c3=O)C2)cc1` (configuration not stated), the survival is inactive: 133%.

For the compound `CCCCOc1ccc(CNC(=O)CN2C(=O)CCn3nc(-c4cn(C)c5ccccc45)cc32)cc1`, the survival is inactive: 73%.

As to `CCOc1ccc2nc(NCCCNC(=O)c3cc(OC)c(OC)c(OC)c3)c(C#N)cc2c1`, the survival was inactive: 99%.

With `COc1ccc(S(=O)(=O)NCCc2csc(-c3cccc(F)c3)n2)cc1OC`, the survival was inactive: 89%.

As to `CCn1cc(S(=O)(=O)c2ccc(OC)cc2)c(=O)c2cc(F)c(N3CCCCCC3)cc21`, the survival is inactive: 82%.

With `COc1cc(OC)c(NC(=O)CC(C)S(=O)(=O)c2ccc3c(c2)NC(=O)CO3)cc1Cl` (configuration not stated), the survival is inactive: 67%.

Consider `COc1ccc(-c2nn(-c3ccc(C)c(Cl)c3)c3c2cnc2cc(OC)c(OC)cc23)cc1`, for which the survival is inactive: 128%.

Turning to `CCOc1ccc(/C=C/C(=O)Nc2sc3c(c2C(=O)OC)CCCC3)cc1`, the survival was inactive: 112%.

With `CCC(Oc1ccccc1)C(=O)Nc1cc(-c2ccccc2F)nn1-c1ccccc1` (configuration not stated), the survival is inactive: 127%.

For the compound `CCN1CCN(c2nc3c(S(=O)(=O)c4ccc(C)cc4)nnn3c3ccsc23)CC1`, the survival is inactive: 90%.

As for `CCN(CC)S(=O)(=O)c1ccc2c(c1)N(CC(=O)NCCc1ccccc1)C(=O)CO2`, the survival was inactive: 77%.

With `CC(C)Cc1nnc(NC(=O)CCCN2C(=O)CCC2=O)s1`, the survival was inactive: 111%.

Consider `CCOc1ccc2nc(N3CCCC(C(=O)Nc4ccc(CC)cc4)C3)sc2c1` (configuration not stated), for which the survival was inactive: 64%.

The values are drawn from PubChem BioAssay AID463173 (ICCB-Longwood Screening Facility, Harvard Medical School, 2010).
